According to PubChem BioAssay AID2060626 (Molecular Pharmacology Branch, DTP, NCI, 2025):
The source holds more than one record for some entries. Only these are listed. An entry can have further records. The values listed for one entry are repeats (runs, samples, wells, individuals or studies). Brackets with × say how often a value occurs here. Marks such as [2022-09] give the month of the run.

Test system: 168753-222-R-J1-PDC complex spheroid viability
Assay: Anticancer human tumor 168753-222-R-J1-PDC patient-derived bladder carcinoma cell line growth inhibition [CLK]
Conditions: for IC50: compound alone; for viability, T/C: stronger effect = lower value
Source text: A high-throughput screen of multi-cell type tumor spheroids was designed to identify active combinations of […] and targeted small molecules. Complex spheroids include a stromal component modeled by human endothelial cells (HUVEC) and fibroblasts modeled by human mesenchymal stem cells (MSCs). The concentration ranges selected for each drug and investigational agent were based upon clinically achievable concentrations if the clinical Cmax of the agent was known.
Compounds. The drugs and investigational agents: cirtuvivint (SM08502; NSC835563), CC-671 (NSC850746), vemurafenib (NSC761431), tapotoclax (NSC804041), sotorasib (NSC818433), adagrasib (NSC831453), MRTX-1133 (NSC836407), BAY2416964 (NSC825713), copanlisib (NSC816437), inavolisib (NSC800729), abemaciclib (NSC768073), osimertinib (NSC779217), entinostat (NSC756642), eltanexor (KPT-8602, NSC794443), venetoclax (NSC766270), ceralasertib (NSC777638), bortezomib (NSC756655), olaparib (NSC753686), talazoparib (NSC767125), alisertib (NSC759677), peposertib (NSC802822), gemcitabine (NSC613327), 5-fluorouracil (NSC19893), SN-38 (NSC673596), oxaliplatin (NSC266046), paclitaxel (NSC125973), and doxorubicin (NSC123127), were obtained from the National Cancer Institute (NCI) Developmental Therapeutics Program Chemical Repository. The FDA-approved anticancer drug set is available from the Developmental Therapeutics Program at https://dtp.cancer.gov/organization/dscb/obtaining/available plates.htm. […] The stock solutions were prepared in dimethyl sulfoxide (DMSO, Sigma-Aldrich, St. Louis, MO, cat. D2650), except for the platinum complexes which were prepared in saline (Quality Biological, Gaithersburg, MD, cat. 114-055-101), at 800-fold the tested concentration and stored at -70 degrees C prior to their use. All drugs and investigational agents were tested over a range starting from a high concentration at or near the clinical Cmax and decreasing in half-log increments. If the clinical Cmax for an agent had not been determined, the highest concentration tested was 10 microM.
Cell Culture. All cells were maintained in an incubator at 37 degrees C and 5% CO2 with 95% humidity. The PDC lines were cultured according to standard operating procedures established by the NCI PDMR. Briefly, all PDCs were thawed and cultured in Matrigel-coated flasks prepared with a working solution of 1X Ham's F-12 nutrient mix, without supplementation (Invitrogen, Waltham, MA, cat. 11765054), 100 U/mL penicillin-streptomycin (Invitrogen, cat. 15140122), and 2.5% Matrigel (Corning Inc., Corning, NY, cat. 354248) for the first three passages. The 947758-054-R-J2-PDC line was cultured in 6B/Colon 1A media, which includes advanced DMEM/F-12 (Thermo Fisher Scientific, cat. 12634028), 10 mM HEPES (Thermo Fisher Scientific, cat. 15630080), 1X GlutaMAX supplement (Thermo Fisher Scientific, cat. 35050061), 0.1 mg/mL primocin (InvivoGen, cat. ant-pm-2), 10% defined fetal bovine serum, heat inactivated (HyClone Laboratories Inc., cat. SH30070.03HI), 1.25 mM N-Acetyl-L-cysteine (Sigma-Aldrich, cat. A9165), 10 mM nicotinamide (Sigma-Aldrich, cat. N0636), 1X B-27 supplement (Thermo Fisher Scientific, cat. 17504044), 1X N-2 supplement (Thermo Fisher Scientific, cat. 17502048), and 10 microM Y-27632 dihydrochloride (Tocris Bioscience, cat. 1254). The 876862-298-R-J1-PDC was cultured in 6E media, which includes all 6B/Colon 1A media components plus 50% L-WRN conditioned media (ATCC, cat. CRL-3276), 50 ng/mL recombinant human EGF recombinant protein (hEGF; Thermo Fisher Scientific, cat. PHG0311), 10 ng/mL recombinant human fibroblast growth factor 10 (hGFG-10; PeproTech, cat. 100-26), 1 ng/mL recombinant human fibroblast growth factor 2 (hFGF-2; PeproTech, cat. 100-18B), and 1 µM prostaglandin E2 (PGE2; Tocris, cat. 2296). The 227483-062-R1-J1-PDC line was cultured in Panc media, containing all 6E components except hFGF-2, with the addition of 500 nM SB-431542 (Selleckchem, cat. S1067) and 10 nM gastrin (Tocris, cat. 3006). […]
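Also: viability measured after seven days of drug exposure.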
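For viability, T/C in this document: luminescence signal used as surrogate for viable cell amount; 100% = DMSO vehicle control wells.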

Q: CCN1CCN(Cc2ccc(Nc3ncc(F)c(-c4cc(F)c5nc(C)n(C(C)C)c5c4)n3)nc2)CC1 was tested. Which IC50 did it give?
A: Its IC50 is 22.8 nM [2023-07] and > 1 µM [2023-08].

Q: With CCc1c2c(nc3ccc(O)cc13)-c1cc3c(c(=O)n1C2)COC(=O)[C@]3(O)CC as the molecule, how does the IC50 read?
A: Its IC50 is 11.8 nM [2023-07] and 253 nM [2023-08].

Q: For Nc1ccn(C2OC(CO)C(O)C2(F)F)c(=O)n1 (configuration not stated), which IC50 is on record?
A: Its IC50 is 41.3 nM [2023-07] and 499 nM [2023-08].

Q: With CNC(=O)c1ccc(Nc2nc(OC3CCCC3)c3c(-c4ccc5nc(C)oc5c4)c[nH]c3n2)c(OC)c1 as the molecule, how does the viability, T/C (compound alone 0.316 µM) read?
A: The viability, T/C was 86.1, 69.6, 79, 69.5, 72.8, 72.3, 76.4, 73.7, 74.2, 79.1, 57, 78.9%.

Q: Which viability, T/C (compound alone 0.0316 µM) does the source give for CN1CCN(c2cc(C(=O)Nc3cc4cc(-c5cnn(C)c5)ccc4cn3)ccn2)CC1 here?
A: Its viability, T/C is 65.6, 61.3, 84.4, 88.6, 77.5, 90.7, 90.6, 86.8, 97.2, 108, 84.8, 116%.

Q: What about the viability, T/C (compound alone 0.1 µM) of the same molecule?
A: The viability, T/C was 29.4, 40.4 (2×), 58.2, 56.7, 50.5, 61, 42.3, 32.6, 58.7, 57.4, 47.5%.

Q: How did the IC50 turn out when NC(=O)C(=Cn1cnc(-c2cc(C(F)(F)F)cc(C(F)(F)F)c2)n1)c1cncnc1 was run?
A: Its IC50 is 187 nM [2023-07] and > 3 µM [2023-08].
